From the supplement of paper PMC6089552
The campaign covered roughly 3,200 compounds. About 300 (9.4%) showed activity. Only a part is listed here, and it is no random draw.

Test system: A673/TR/shEF
Experiment: cell viability (LOESS-normalised, relative to median of negative controls) (log2 ratio); higher = more viable cells (less compound effect), active = hit call of the paper (over 3 MAD below the median)
Details: treatment time: 72 h
In short: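 A673/TR/shEF Ewing sarcoma cells were plated at 1,500 per well in 384-well plates and cultured with or without doxycycline, added 24 h before compounds, to induce EWS-FLI1 shRNA knockdown. Library compounds at two or more concentrations, alongside DMSO controls, were applied for three days. Cell viability was measured by CellTiter-Glo luminescence on an Envision reader. Readings were LOESS-corrected per plate, divided by the median of negative controls and log2-transformed, and hits were wells lying at least three median absolute deviations from the median of all screened wells.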

[1] = 0.25 µM, library screen: screen1, EWS-FLI1 expression: high (no doxycycline)
[2] = 0.25 µM, library screen: screen1, EWS-FLI1 expression: low (doxycycline-induced shRNA knockdown)
[3] = 2.5 µM, library screen: screen1, EWS-FLI1 expression: high (no doxycycline)
[4] = 2.5 µM, library screen: screen1, EWS-FLI1 expression: low (doxycycline-induced shRNA knockdown)
[5] = 0.25 µM, library screen: screen2, EWS-FLI1 expression: high (no doxycycline)
[6] = 0.25 µM, library screen: screen2, EWS-FLI1 expression: low (doxycycline-induced shRNA knockdown)
[7] = 2.5 µM, library screen: screen2, EWS-FLI1 expression: high (no doxycycline)
[8] = 2.5 µM, library screen: screen2, EWS-FLI1 expression: low (doxycycline-induced shRNA knockdown)
[9] = 0.308 µM, library screen: screen3, EWS-FLI1 expression: high (no doxycycline)
[10] = 0.308 µM, library screen: screen3, EWS-FLI1 expression: low (doxycycline-induced shRNA knockdown)
[11] = 0.926 µM, library screen: screen3, EWS-FLI1 expression: high (no doxycycline)
[12] = 0.926 µM, library screen: screen3, EWS-FLI1 expression: low (doxycycline-induced shRNA knockdown)
[13] = 2.8 µM, library screen: screen3, EWS-FLI1 expression: high (no doxycycline)
[14] = 2.8 µM, library screen: screen3, EWS-FLI1 expression: low (doxycycline-induced shRNA knockdown)
[15] = 8.3 µM, library screen: screen3, EWS-FLI1 expression: high (no doxycycline)
[16] = 8.3 µM, library screen: screen3, EWS-FLI1 expression: low (doxycycline-induced shRNA knockdown)
[17] = 25 µM, library screen: screen3, EWS-FLI1 expression: high (no doxycycline)
[18] = 25 µM, library screen: screen3, EWS-FLI1 expression: low (doxycycline-induced shRNA knockdown)
[19] = 0.103 µM, library screen: screen3, EWS-FLI1 expression: high (no doxycycline)
[20] = 0.103 µM, library screen: screen3, EWS-FLI1 expression: low (doxycycline-induced shRNA knockdown)

Measured: cell viability (log2)

Cc1ccccc1OCC(O)CO (centres undefined)
inactive: [1] 0.0791 | [2] -0.0304 | [3] 0.14 | [4] -0.0183

NC(N)=NC(=O)c1nc(Cl)c(N2CCCCCC2)nc1N
inactive: [1] 0.112 | [2] 0.0462 | [5] 0.116 | [6] 0.137 | [3] 0.118 | [4] 0.0338 | [7] 0.142 | [8] 0.0733

O=C1CN(/N=C/c2ccc([N+](=O)[O-])o2)C(=O)N1
inactive: [1] 0.0668 | [2] -0.0411 | [3] 0.18 | [4] 0.0382

CS(=O)(=O)c1ccc(-c2cc(Br)sc2-c2ccc(F)cc2)cc1
inactive: [5] 0.22 | [6] 0.0867 | [7] 0.138 | [8] 0.138

COc1ccc(CN2CCN(Cc3ccc4ccccc4c3)CC2)cc1OC
inactive: [1] 0.139 | [2] 0.112 | [3] 0.0401 | [4] 0.187

CC1=C(CC(=O)O)c2cc(F)ccc2/C1=C\c1ccc(S(C)(=O)=O)cc1
inactive: [5] 0.0875 | [6] 0.0432 | [7] 0.105 | [8] 0.0598

CC(C)CC1NC(=O)C(Cc2ccccc2)NC(=O)C(CCN)NC(=O)C(NC(=O)C(CCN)NC(=O)C(CCO)NC(=O)C(CCN)NC=O)CCNC(=O)C(CCO)NC(=O)C(CCN)NC(=O)C(CCN)NC1=O.COc1cc(Cc2cnc(N)nc2N)cc(OC)c1OC (centres undefined)
inactive: [1] 0.0686 | [2] 0.0873 | [3] 0.182 | [4] 0.054

COc1c/c(=C2\C=c3ccccc3=N2)[nH]/c1=C\c1[nH]c(C)cc1C
active: [9] -0.218 | [10] -0.107 | [11] -0.709 | [12] -0.236 | [13] -2.64 | [14] -1.14 | [15] -3.15 | [16] -1.55 | [17] -4.31 | [18] -2.5

CC(C)CN(C)c1nc(N)c(C(=O)N=C(N)N)nc1Cl
inactive: [5] 0.17 | [6] 0.0963 | [7] 0.0788 | [8] 0.132

NS(=O)(=O)c1cc2c(cc1Cl)NC(CSCc1ccccc1)=NS2(=O)=O
inactive: [1] 0.103 | [2] 0.0722 | [3] 0.0775 | [4] 0.161

Cc1cc(NS(=O)(=O)c2ccc(N)cc2)no1
inactive: [19] 0.0914 | [20] 0.0238 | [1] 0.0536 | [2] 0.121 | [9] 0.102 | [10] 0.0418 | [11] 0.141 | [12] 0.0634 | [3] 0.0944 | [4] 0.121 | [13] 0.126 | [14] 0.0903 | [15] 0.144 | [16] 0.0558 | [17] 0.147 | [18] 0.0962

CN[C@@H]1[C@@H](O)[C@@H](O[C@@H]2[C@@H](O)[C@H](O[C@H]3OC(CN)=CC[C@H]3N)[C@@H](N)C[C@H]2N)OC[C@]1(C)O
inactive: [1] 0.0635 | [2] 0.0858 | [3] 0.103 | [4] 0.101

O=C(c1ccc2c(c1)OCCO2)N1CCCCC1
inactive: [5] 0.241 | [6] -0.0218 | [7] 0.114 | [8] 0.185

C=C[C@@H](C1=CC(=O)C(OC)=C(OC)C1=O)c1ccccc1
inactive: [2] 0.026 | [3] -0.00361 | [4] 0.0945
active: [1] -0.165

COc1cc(CN2CCN(Cc3ccccc3Br)CC2)cc(OC)c1OC
inactive: [1] 0.141 | [2] 0.0128 | [3] 0.124 | [4] -0.0338

O=C1OC(=O)C2C3CCC(O3)C12 (centres undefined)
inactive: [1] 0.115 | [2] 0.0886 | [5] 0.138 | [6] 0.0834 | [3] 0.14 | [4] 0.011 | [7] 0.114 | [8] 0.0316

COc1cc(O)c2c(c1)C(=O)c1cc(C)cc(O)c1C2=O
inactive: [1] 0.0766 | [2] 0.0322 | [3] 0.16 | [4] 0.0382

CC1(C)O[C@@H]2C[C@H]3[C@@H]4CCC5=CC(=O)C=C[C@]5(C)[C@H]4[C@@H](O)C[C@]3(C)[C@]2(C(=O)CO)O1
inactive: [19] -0.0091 | [20] 0.0117 | [9] -0.0587 | [10] 0.0625 | [11] 0.111 | [12] 0.0874 | [13] 0.0491 | [14] -0.0473 | [15] 0.0357 | [16] 0.0906 | [17] 0.105 | [18] 0.147

c1ccc(-c2ccccn2)nc1
inactive: [5] 0.15 | [6] 0.103 | [7] 0.133 | [8] 0.103

COc1ccccc1N1CCN(CCN(C(=O)c2ccc(F)cc2)c2ccccn2)CC1
inactive: [5] 0.142 | [6] 0.0764 | [7] 0.0684 | [8] 0.0252
